Test results: PubChem BioAssay AID1458 (National Center for Advancing Translational Sciences (NCATS), 2008)
Hit rate of the full screen: of about 210,000 compounds, about 5,900 (2.8%) were called active. The shares of active, inactive and inconclusive entries below differ from those in the screen. The call rests on the fitted dose curve; in most records, active means well fitted activation curve with a large enough effect; inconclusive means small, poorly fitted or top-dose-only effect; inactive means no such curve, though single readings can be large or run the other way. A potency beside an inconclusive call is a rough fit, not a confirmed value.

Test: qHTS Assay for Enhancers of SMN2 Splice Variant Expression; further: nearly all actives have a fitted effect of over 55% in size; on activity change, positive = activation: % of control where 0% means no effect
Conditions: HEK293 SMN2-luciferase splicing reporter, luminescence, 30-36 h; activity change, positive = activation: at 46.1 µM (top of the series)
Summary of the method: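 HEK293 cells carry an SMN2 minigene-luciferase reporter in which exon 7 inclusion puts luciferase in frame. Cells were seeded at 2000 cells/well, attached for 10-12 hours, then exposed to compounds for 30-36 hours at 37C before ONE-Glo luminescence.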
Potency means the concentration at half of the fitted maximal effect; tags describe the fitted curve by direction and shape.

Row | SMILES | Potency | activity change, positive = activation
1 | O=C(/C=C/c1ccccc1Cl)Nc1cccc(O)c1 | inconclusive: 35.5 µM [activator, single point] | 
2 | CCNC(=S)NNC(=O)c1cc(-c2cccc(OC)c2)nc2ccccc12 | inconclusive: 25.1 µM [activator, single point] | 
3 | Cc1ccc2nc(-c3ccc(SCC(=O)Nc4ccc5c(c4)OCCO5)nc3)[nH]c2c1 | inconclusive: 35.5 µM [activator, single point] | 
4 | Cc1ccccc1C(=O)N/N=C/c1ccccn1 | active: 11.2 µM | 
5 | NC(=O)c1c(NC(=O)C2CCCO2)sc2c1CCCCC2 (configuration not stated) | inconclusive: 8.91 µM [activator, partial curve] | 
6 | Cn1c(C(=O)Nc2ccc3c(c2)OCO3)cc2sccc21 | active: 12.6 µM | 
7 | Cc1ccc(-c2nnc(SCC(=O)Nc3nccs3)n2N)cc1 | inconclusive: 35.5 µM [activator, single point] | 
8 | Cc1cc(/C=N/NC(N)=S)c(C)n1-c1ccc(Cl)cc1 | inconclusive: 3.55 µM [activator, partial curve] | 
9 | Cc1cc(N2CCOCC2)ccc1/C=C1\NC(=O)N(CC(=O)Nc2ccc(F)cc2)C1=O |  | inactive: 18.1%
10 | c1ccc(CC2CCN(Cc3ccccn3)CC2)cc1 | inconclusive: 35.5 µM [activator, single point] | 
11 | Cc1ccc(/C=C/C(=O)c2c(C)cc(C)[nH]c2=O)cc1 |  | inactive: -43.7%
12 | N/C(=N\OC(=O)COc1ccc(Br)cc1)c1ccncc1 | inconclusive: 35.5 µM [activator, single point] | 
13 | O=S(=O)(Cc1ccccc1)Nc1ccc(S(=O)(=O)NCC2CCCO2)cc1 (configuration not stated) | inconclusive: 10 µM [activator, partial curve, poor fit] | 
14 | C[C@H](NC(=O)Nc1ccccc1F)C(=O)O | inconclusive: 2.82 µM [activator, partial curve, poor fit] | 
15 | CC(=O)c1cccc(NC(=O)CCc2nc3cccnc3n2Cc2cccs2)c1 |  | inactive: -17.6%
16 | COc1ccc(C(=O)Nc2nc(C)c(C(=O)N(C)C)s2)cc1OC | inconclusive: 12.6 µM [activator, single point] | 
17 | CC(C)(C)c1ccc(C(=O)NNC(=O)c2cccc(Br)c2)cc1 | inconclusive: 35.5 µM [activator, single point] | 
18 | Cc1ccc(-n2[nH]c(C)c(C=Nc3cc(C)ccn3)c2=O)cc1 | inconclusive: 10 µM [activator, partial curve, poor fit] | 
19 | Cc1[nH]nc2c1C(c1ccsc1)C1=C(CC(C)(C)CC1=O)N2 (configuration not stated) |  | inactive: 22.8%

Row | SMILES | Potency | activity change, positive = activation
20 | CC(C)CCn1c(Oc2ccc(Cl)cc2)nc2c1c(=O)n(C)c(=O)n2C |  | inactive: -14.1%
21 | CCOc1ccc2nc3c(cc2c1)CN(CCCO)C(=NCCOC)S3 | inconclusive: 35.5 µM [activator, single point] | 
22 | CCCC1NC(=O)NC(C)=C1C(=O)OCC (configuration not stated) | inconclusive: 3.16 µM [activator, full curve, poor fit] | 
23 | COc1ccc(-c2cc(-c3cc(OC)ccc3O)[nH]n2)cc1 | inconclusive: 31.6 µM [activator, single point] | 
24 | CCC(=O)Nc1cccc(NC(=O)c2cc3ccccc3o2)c1 | inconclusive: 14.1 µM [activator, single point] | 
25 | CCN(CC)C(=O)C(C)N(C#N)c1nc(SC)nc(N(C)C)n1 (configuration not stated) | inconclusive: 0.794 µM [activator, full curve] | 
26 | COc1ccc(C(=O)Cc2ccc(F)cc2)c(OC)c1 | inconclusive: 35.5 µM [activator, single point] | 
27 | NC(=O)c1ccc(-c2nc(-c3ccc4c(c3)OCO4)c(-c3ccccn3)[nH]2)cc1 |  | inactive: 2.72%
28 | c1ccc2c(c1)nc(NC1CCCCC1)c1nncn12 | inconclusive: 0.199 µM [activator, full curve, poor fit] | 
29 | Cc1ccc(S(=O)(=O)N2CCCC2C(=O)Nc2ccc(Br)cc2)cc1 (configuration not stated) |  | inactive: -87.6%
30 | CC(C)c1ccc(/C=C/C2=NNC(=O)CC2)cc1 | active: 10 µM | 
31 | Cc1cccc(NC(=O)c2ccoc2C)n1 | active: 17.8 µM | 
32 | COc1ccccc1-c1noc(CSc2nnc(-c3ccccc3)n2-c2ccc(C)c(C)c2)n1 |  | inactive: 6.46%
33 | COc1ccccc1N1CCN(c2c(CN3CCCC3)c(=O)oc3ccccc23)CC1 |  | inactive: -3.98%
34 | COc1ccccc1-c1coc2cc(O)cc(O)c2c1=O |  | inactive: 25.2%
35 | C=CCOc1c2ccc(C(=O)NC3CCCc4ccccc43)cc2nn1C (configuration not stated) | inconclusive: 35.5 µM [activator, single point] | 
36 | O=C(Oc1ccc(-c2ccccc2)cc1)N1CCCCC1 | inconclusive: 14.1 µM [activator, single point] | 
37 | CC1(C)CC(=O)C(N=Nc2cc(Cl)c(Cl)c(Cl)c2)=C(O)C1 |  | inactive: 2.03%
